# From PubChem BioAssay AID1347044 (National Center for Advancing Translational Sciences (NCATS), 2019)
# The list shows a part of the results. Further columns of the screen follow, without active or inactive calls. Most of these compounds were active or inconclusive in the main read-out, so they are no random draw. Potencies come from curve fits of mixed quality, noted in brackets.
# Assay: Natriuretic polypeptide receptor (hNpr1) antagonism - Confirmation; further: nearly all actives have a fitted effect of over 70% in size
# Settings: HEK293 hNpr1 cGMP GloSensor luminescence, ANP-stimulated; measured here: HEK-hNpr1 cytotoxicity, CellTiter-Glo
# Summary of the method: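 Compound (30 min, room temperature) preceded stimulation with hNppA peptide at 0.1 nM final for 20 min. Cells were HEK293 carrying hNpr1 plus GloSensor pGS-40F cGMP biosensor, pre-equilibrated 2 h with 2% substrate; cGMP was followed as luminescence pre- and post-agonist.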
# Tags describe the fitted curve by direction and shape.
row,SMILES,CC50
1,COc1ccc(CN2CCn3c(nn(-c4ccc([N+](=O)[O-])cc4)c3=O)C2)cc1,"43.2 µM [falling, single point]"
2,CC1(COc2cccnc2)COc2ccc(C(=O)NCc3ccc4c(c3)OCO4)cc2N1 (stereo unspecified),"35.3 µM [falling, partial curve]"
3,COc1ccc(C2Cn3nnc(C(=O)N4CCN(C(=O)c5cc(F)ccc5F)CC4)c3CO2)cc1 (stereo unspecified),"19.3 µM [falling, partial curve]"
4,O=C(Nc1cc(F)cc(C(F)(F)F)c1)N1CCCOC(Cn2cccn2)C1 (stereo unspecified),"30.6 µM [falling, single point]"
5,CC1=NS(=O)(=O)N(C)C=C1C(=O)OCc1nc(-c2ccc(F)cc2)no1,"24.3 µM [falling, partial curve]"
6,O=C(c1ccc(C(F)(F)F)cc1)N1CCn2c(nn(-c3ccncc3)c2=O)C1,"21.7 µM [falling, partial curve]"
7,CC(C)c1ccc(CN2CC[C@@H]3OCC(=O)N(C(C)C)[C@H]3CC2)cc1,"7.89 µM [falling, full curve]"
8,COc1cccc(CC(=O)N2CC(Oc3ccc(-c4noc(-c5ccncc5)n4)cc3)C2)c1,"6.85 µM [falling, full curve]"
9,O=C(c1ccc(OC(F)(F)F)cc1)N1CCN(c2cc(-c3ccc(Cl)cc3)[nH]n2)CC1,"21.7 µM [falling, partial curve]"
10,COc1cccc(NC(=O)c2cnc3c(c2)N(C(=O)Cc2ccc(C(C)C)cc2)CCC3)c1,"19.3 µM [falling, partial curve]"
11,Cc1ncsc1CN1CCCCC1c1nc(CCOc2ccc(F)cc2)no1 (stereo unspecified),"19.3 µM [falling, partial curve]"
12,CC(C)S(=O)(=O)N1CC(Oc2ccc(-c3noc(-c4cccnc4)n3)cc2)C1,"19.3 µM [falling, partial curve]"
13,COc1ccc(CNC(=O)c2cc3n(n2)CC(c2ccc(Cl)cc2)OC3)cc1 (stereo unspecified),"27.3 µM [falling, partial curve]"
14,COc1cccc(CNc2cc(Cl)nc3ccnn23)c1,"35.3 µM [falling, partial curve]"
15,O=C(Cc1ccccc1Cl)NC1CCN(c2cc(C(F)(F)F)ncn2)CC1,"21.7 µM [falling, partial curve]"
16,O=C(Nc1ccc(Cl)cc1)c1cc2n(n1)CC(c1ccc3c(c1)OCO3)OC2 (stereo unspecified),"27.3 µM [falling, partial curve]"
17,CC1=NS(=O)(=O)N(C)C=C1C(=O)OCc1nc(Cc2ccc(C)cc2)no1,"24.3 µM [falling, single point]"
18,O=C(CC1CCCC1)N1CCC(Cc2nc(-c3ccc(F)cc3)no2)CC1,"5.44 µM [falling, full curve]"
19,CC1CCCN(C(=O)c2cc3c(s2)CCN(C(=O)c2ccc(Cl)cc2)C3)C1 (stereo unspecified),"30.6 µM [falling, single point]"
20,COc1cc(F)cc(-c2cnc3[nH]cc(CC(=O)N4CCOCC4)c3c2)c1,"9.94 µM [falling, full curve]"
21,COc1ccc(C2Cn3nnc(C(=O)N4CCN(C(=O)c5ccc(F)cc5)CC4)c3CO2)cc1 (stereo unspecified),"21.7 µM [falling, partial curve]"

row,SMILES,CC50
1,O=C(NCCc1ccccn1)c1cc2n(n1)CC(c1ccc(Br)cc1)OC2 (stereo unspecified),"24.3 µM [falling, partial curve]"
2,COc1ccc(NC(=O)O[C@@H]2CO[C@H]3[C@@H]2OC[C@@H]3NC(=S)Nc2ccc(Cl)cc2)cc1,"19.3 µM [falling, partial curve, poor fit]"
3,COc1ccc(CC(=O)N2CCC(Cc3nc(-c4ccccc4)no3)CC2)cc1,"17.2 µM [falling, partial curve]"
4,COc1ccc(C(=O)Nc2ccc(-c3noc([C@@H]4CCCN4Cc4ccc(OC(F)(F)F)cc4)n3)cn2)cc1,"6.85 µM [falling, full curve]"
5,COc1ccc(CN2C(=O)CO[C@H]3CN(Cc4ccc5c(c4)OCO5)C[C@H]32)cc1,"35.3 µM [falling, partial curve]"
6,O=[S+]1([O-])NC2(CCN(Cc3ccc(OC(F)(F)F)cc3)C2)CNc2ccccc21 (stereo unspecified),"12.2 µM [falling, partial curve]"
7,COc1ccc(CNC(=O)c2cc3c(s2)CCN(C(=O)c2ccccc2)C3)cc1OC,"7.69 µM [falling, partial curve]"
8,Cn1cc(-c2ccc(O)c(F)c2)c2nc(COc3ccc(Cl)cc3)cn2c1=O,"35.3 µM [falling, partial curve]"
9,CS(=O)(=O)N1CCc2ccc(C(=O)Nc3ccc(Oc4ccccc4)cc3)cc21,"7.69 µM [falling, partial curve]"
10,Fc1ccc2c(c1)nc1n2[C@@H](CNCc2cnc3ccccc3c2)COC1,"39.6 µM [falling, partial curve]"
11,CCc1cc(N2CCOC(c3ccc4cc(OC)ccc4c3)C2)nc(C)n1 (stereo unspecified),"21.7 µM [falling, partial curve]"
12,O=C(NCc1cccc(F)c1)c1csc(N2CCN(c3ccc(Cl)cc3)CC2)n1,"21.7 µM [falling, partial curve]"
13,CC(C)c1ccc(CNC(=O)C2CCN(c3cc(C(F)(F)F)ncn3)CC2)cc1,"24.3 µM [falling, partial curve]"
14,O=C(c1cc(Cl)ccc1F)N1CCC(Cc2nc(-c3ccc(F)cc3)no2)CC1,"6.11 µM [falling, full curve]"
15,O=C(c1ccc2c(c1)OCO2)N1CCC2(CC1)N=C(c1ccc(Br)cc1)NO2,"27.3 µM [falling, partial curve]"
16,CCOc1ccc(C(O)Cn2ccn3nc(-c4ccccc4C)cc3c2=O)cc1 (stereo unspecified),"17.2 µM [falling, partial curve]"
17,COc1ccc(-c2ccnc(N[C@H]3CO[C@H]4[C@@H]3OC[C@H]4OC(=O)Nc3ccc(C(C)=O)cc3)n2)cc1,"19.3 µM [falling, partial curve]"
18,COc1ccc(CN2CCN3C(=O)N(Cc4ccc(OC)cc4)C[C@H]3C2)cc1,"22.2 µM [falling, partial curve]"
19,O=C(OCc1ccccc1)N1CCCN(c2cc(C3CC(O)C3)ncn2)CC1 (stereo unspecified),"13.7 µM [falling, partial curve]"
20,Cc1noc(C)c1-c1cnc2[nH]cc(CC(=O)N3CCOCC3)c2c1,"25 µM [falling, partial curve, poor fit]"
21,O=C(Nc1ccc(Cl)cc1)c1cc2n(n1)CC(c1ccc(Cl)cc1)OC2 (stereo unspecified),"30.6 µM [falling, single point]"

row,SMILES,CC50
1,O=C(Nc1ccncc1)C1=NO[C@@H]2CN(CCc3ccccc3)C[C@H]12,"31.4 µM [falling, partial curve]"
2,CCc1ccc(C(=O)N2CCC(Cc3nc(-c4ccc(OC)cc4)no3)CC2)cc1,"8.62 µM [falling, full curve]"
3,Cc1ccc(C(=O)N2CCC3(CC2)CC(=O)Nc2ccccc2O3)cc1,"24.1 µM [falling, partial curve]"
4,O=C(CCC1CCCN(S(=O)(=O)c2cccc(F)c2)C1)NC1CCCCC1 (stereo unspecified),"21.7 µM [falling, partial curve]"
5,N#Cc1cccc(NC(=O)O[C@@H]2CO[C@H]3[C@@H]2OC[C@@H]3Nc2nccc(-c3cccc(F)c3)n2)c1,"21.7 µM [falling, partial curve]"
6,OCC1CCCN(c2ccc(-c3nc(-c4cccc(C(F)(F)F)c4)no3)cn2)C1 (stereo unspecified),"17.2 µM [falling, partial curve]"
7,O=C(c1cccc(F)c1)N1CC(Oc2ccc(-c3noc(C4CCOCC4)n3)cc2)C1,"15.3 µM [falling, partial curve]"
8,CCOC(=O)c1ccc(NC(=O)Cn2c(N(C)Cc3ccccc3)nc(C)cc2=O)cc1,"27.3 µM [falling, single point]"
9,CC1Oc2ccc(NC(=O)Cc3cccs3)cc2CN(Cc2ccc(Cl)cc2)C1=O (stereo unspecified),"43.2 µM [falling, single point]"
10,COc1ccc(C2Cn3nnc(C(=O)N4CCN(C(=O)c5cccc(Cl)c5)CC4)c3CO2)cc1 (stereo unspecified),"19.3 µM [falling, partial curve]"
11,Cc1csc(NC(=O)c2cnc3c(c2)N(C(=O)Cc2ccc(C(C)C)cc2)CCC3)n1,"31.4 µM [falling, partial curve]"
12,CC1(COc2cccnc2)COc2ccc(C(=O)NCc3ccc(F)cc3)cc2N1 (stereo unspecified),"35.3 µM [falling, partial curve]"
13,Cc1ccc(OCc2nc(C3CCN(C(=O)CCc4nc5ccc(Cl)cc5[nH]4)CC3)no2)cc1,"24.3 µM [falling, partial curve]"
14,CC(C)c1cc(C(=O)N2CCC(n3cc(-c4ccccn4)nn3)CC2)n(C)n1,"21.7 µM [falling, partial curve]"
15,O=C(NCc1cc(F)ccc1F)c1csc(N2CCN(c3ccccc3F)CC2)n1,"30.6 µM [falling, single point]"
16,Cc1ccc(CNC(=O)N2CCC(c3noc(-c4ccccc4)n3)C2)cc1 (stereo unspecified),"43.2 µM [falling, single point]"
17,COc1ccc(S(=O)(=O)N2CCc3c(C(=O)NCCc4ccccn4)cccc32)cc1,"34.3 µM [falling, single point]"
18,COc1ccccc1C(=O)N1CCC(Cc2nc(-c3ccc(F)cc3)no2)CC1,"12.2 µM [falling, partial curve]"
19,Cc1nc(C2CC(O)C2)cc(N2CCN(c3nc4ccccc4s3)CC2)n1 (stereo unspecified),"9.68 µM [falling, partial curve]"
